Among the data in ChEMBL document CHEMBL1961873, “Compounds: GSK PKIS; Assays: Nanosyn kinase panel” (2012) are inhibition values, retold here.

Assay [1] concerns Epidermal growth factor receptor (Homo sapiens), P00533 [T790M]. As to conditions: at 1 µM.
Assay [2] concerns Epidermal growth factor receptor (Homo sapiens), P00533 [L858R,T790M]. The note with it: at 0.1 µM.
Assay [3] has the same test system. As to conditions: at 1 µM.
Assay [4] has as its target Ephrin type-A receptor 2 (Homo sapiens) (UniProt P29317). The note with it: at 0.1 µM.
Chain of UniProt P29317 (P29317 whole entry): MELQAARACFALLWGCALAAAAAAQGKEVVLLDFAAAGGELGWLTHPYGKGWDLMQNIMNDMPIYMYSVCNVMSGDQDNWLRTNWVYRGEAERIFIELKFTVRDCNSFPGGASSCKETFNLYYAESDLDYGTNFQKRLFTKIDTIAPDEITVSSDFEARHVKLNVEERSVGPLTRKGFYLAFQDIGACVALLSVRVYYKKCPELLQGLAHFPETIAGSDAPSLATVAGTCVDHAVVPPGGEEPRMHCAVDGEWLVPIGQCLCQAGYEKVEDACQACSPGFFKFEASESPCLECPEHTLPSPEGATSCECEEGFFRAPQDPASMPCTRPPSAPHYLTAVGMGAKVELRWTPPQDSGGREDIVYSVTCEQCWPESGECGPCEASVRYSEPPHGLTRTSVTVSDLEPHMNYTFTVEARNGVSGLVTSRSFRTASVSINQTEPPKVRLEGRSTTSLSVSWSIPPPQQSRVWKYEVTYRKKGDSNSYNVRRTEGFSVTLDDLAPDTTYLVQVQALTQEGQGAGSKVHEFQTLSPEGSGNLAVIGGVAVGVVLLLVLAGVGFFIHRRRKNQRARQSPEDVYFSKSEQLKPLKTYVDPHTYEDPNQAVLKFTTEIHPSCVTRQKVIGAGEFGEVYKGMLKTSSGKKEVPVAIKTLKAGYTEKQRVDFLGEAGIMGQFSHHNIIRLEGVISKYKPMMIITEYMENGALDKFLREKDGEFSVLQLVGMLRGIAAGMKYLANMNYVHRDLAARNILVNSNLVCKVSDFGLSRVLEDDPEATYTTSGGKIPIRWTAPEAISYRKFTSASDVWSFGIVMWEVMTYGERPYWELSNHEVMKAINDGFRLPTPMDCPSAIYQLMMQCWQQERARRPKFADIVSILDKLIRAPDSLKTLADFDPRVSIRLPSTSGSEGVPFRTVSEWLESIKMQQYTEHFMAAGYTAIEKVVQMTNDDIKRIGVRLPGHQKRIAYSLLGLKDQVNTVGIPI
The target is the same in assay [5]. As to conditions: at 1 µM.
The target in assay [6] is T1, Ephrin type-A receptor 3 (Homo sapiens) (UniProt P29320).
T1 sequence (whole entry): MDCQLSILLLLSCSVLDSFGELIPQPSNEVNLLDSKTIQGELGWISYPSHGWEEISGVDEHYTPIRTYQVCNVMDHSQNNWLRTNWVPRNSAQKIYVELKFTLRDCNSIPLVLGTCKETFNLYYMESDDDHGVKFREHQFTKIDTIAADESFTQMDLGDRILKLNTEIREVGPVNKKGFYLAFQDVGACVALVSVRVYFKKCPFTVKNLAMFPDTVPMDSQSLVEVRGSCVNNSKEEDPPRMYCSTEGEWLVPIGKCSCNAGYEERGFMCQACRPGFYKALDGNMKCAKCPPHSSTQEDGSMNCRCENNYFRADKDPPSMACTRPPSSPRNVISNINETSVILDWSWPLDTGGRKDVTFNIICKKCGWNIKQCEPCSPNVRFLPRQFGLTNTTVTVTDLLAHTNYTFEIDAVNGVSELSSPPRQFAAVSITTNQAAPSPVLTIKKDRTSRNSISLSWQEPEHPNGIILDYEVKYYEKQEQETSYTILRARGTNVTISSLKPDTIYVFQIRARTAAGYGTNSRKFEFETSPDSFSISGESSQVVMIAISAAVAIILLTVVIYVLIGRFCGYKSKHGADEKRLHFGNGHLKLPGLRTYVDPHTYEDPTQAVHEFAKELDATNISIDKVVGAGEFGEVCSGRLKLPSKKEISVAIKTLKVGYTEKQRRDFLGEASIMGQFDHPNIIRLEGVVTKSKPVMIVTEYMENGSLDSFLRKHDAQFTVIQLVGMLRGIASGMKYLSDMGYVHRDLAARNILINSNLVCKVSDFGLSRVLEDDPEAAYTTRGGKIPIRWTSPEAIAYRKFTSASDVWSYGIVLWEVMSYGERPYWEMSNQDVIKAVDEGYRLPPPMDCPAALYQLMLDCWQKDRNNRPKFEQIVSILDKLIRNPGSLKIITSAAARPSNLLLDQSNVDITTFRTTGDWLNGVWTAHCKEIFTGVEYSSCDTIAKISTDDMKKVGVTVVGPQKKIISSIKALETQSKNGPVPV
The note with it: at 0.1 µM.

Assay [7] concerns the target T1, Ephrin type-A receptor 3 (Homo sapiens). As to conditions: at 1 µM.
For assay [8], the target named is Ephrin type-A receptor 4 (Homo sapiens) (UniProt P54764). As to conditions: at 0.1 µM.
Chain of UniProt P54764 (P54764 whole entry): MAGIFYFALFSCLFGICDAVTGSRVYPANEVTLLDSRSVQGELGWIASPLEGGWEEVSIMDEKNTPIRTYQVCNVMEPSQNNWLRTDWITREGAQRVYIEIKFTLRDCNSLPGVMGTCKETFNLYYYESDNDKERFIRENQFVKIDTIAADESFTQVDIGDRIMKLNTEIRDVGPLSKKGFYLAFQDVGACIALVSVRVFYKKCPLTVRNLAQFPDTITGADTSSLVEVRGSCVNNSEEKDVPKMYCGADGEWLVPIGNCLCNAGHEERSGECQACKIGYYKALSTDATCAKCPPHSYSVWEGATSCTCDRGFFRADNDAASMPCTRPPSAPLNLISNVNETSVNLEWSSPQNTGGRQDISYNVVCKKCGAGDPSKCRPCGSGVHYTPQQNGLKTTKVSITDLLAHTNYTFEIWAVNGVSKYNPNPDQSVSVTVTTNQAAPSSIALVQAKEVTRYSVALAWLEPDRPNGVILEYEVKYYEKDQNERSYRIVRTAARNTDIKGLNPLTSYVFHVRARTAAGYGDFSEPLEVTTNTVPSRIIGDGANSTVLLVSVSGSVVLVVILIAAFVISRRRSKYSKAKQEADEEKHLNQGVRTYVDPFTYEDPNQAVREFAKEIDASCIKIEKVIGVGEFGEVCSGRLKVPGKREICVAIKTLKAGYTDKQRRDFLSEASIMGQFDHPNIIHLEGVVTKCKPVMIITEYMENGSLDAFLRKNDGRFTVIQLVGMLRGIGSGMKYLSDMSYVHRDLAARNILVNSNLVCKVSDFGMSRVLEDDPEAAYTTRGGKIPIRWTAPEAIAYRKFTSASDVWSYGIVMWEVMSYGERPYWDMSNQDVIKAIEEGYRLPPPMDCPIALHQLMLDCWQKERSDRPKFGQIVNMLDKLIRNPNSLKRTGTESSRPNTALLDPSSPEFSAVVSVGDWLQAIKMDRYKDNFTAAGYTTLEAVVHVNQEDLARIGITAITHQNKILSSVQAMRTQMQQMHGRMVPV
For assay [9] the target is unchanged. As to conditions: at 1 µM.
Assay [10] deals with T2, Ephrin type-B receptor 2 (Homo sapiens) (UniProt P29323).
T2 sequence (whole entry): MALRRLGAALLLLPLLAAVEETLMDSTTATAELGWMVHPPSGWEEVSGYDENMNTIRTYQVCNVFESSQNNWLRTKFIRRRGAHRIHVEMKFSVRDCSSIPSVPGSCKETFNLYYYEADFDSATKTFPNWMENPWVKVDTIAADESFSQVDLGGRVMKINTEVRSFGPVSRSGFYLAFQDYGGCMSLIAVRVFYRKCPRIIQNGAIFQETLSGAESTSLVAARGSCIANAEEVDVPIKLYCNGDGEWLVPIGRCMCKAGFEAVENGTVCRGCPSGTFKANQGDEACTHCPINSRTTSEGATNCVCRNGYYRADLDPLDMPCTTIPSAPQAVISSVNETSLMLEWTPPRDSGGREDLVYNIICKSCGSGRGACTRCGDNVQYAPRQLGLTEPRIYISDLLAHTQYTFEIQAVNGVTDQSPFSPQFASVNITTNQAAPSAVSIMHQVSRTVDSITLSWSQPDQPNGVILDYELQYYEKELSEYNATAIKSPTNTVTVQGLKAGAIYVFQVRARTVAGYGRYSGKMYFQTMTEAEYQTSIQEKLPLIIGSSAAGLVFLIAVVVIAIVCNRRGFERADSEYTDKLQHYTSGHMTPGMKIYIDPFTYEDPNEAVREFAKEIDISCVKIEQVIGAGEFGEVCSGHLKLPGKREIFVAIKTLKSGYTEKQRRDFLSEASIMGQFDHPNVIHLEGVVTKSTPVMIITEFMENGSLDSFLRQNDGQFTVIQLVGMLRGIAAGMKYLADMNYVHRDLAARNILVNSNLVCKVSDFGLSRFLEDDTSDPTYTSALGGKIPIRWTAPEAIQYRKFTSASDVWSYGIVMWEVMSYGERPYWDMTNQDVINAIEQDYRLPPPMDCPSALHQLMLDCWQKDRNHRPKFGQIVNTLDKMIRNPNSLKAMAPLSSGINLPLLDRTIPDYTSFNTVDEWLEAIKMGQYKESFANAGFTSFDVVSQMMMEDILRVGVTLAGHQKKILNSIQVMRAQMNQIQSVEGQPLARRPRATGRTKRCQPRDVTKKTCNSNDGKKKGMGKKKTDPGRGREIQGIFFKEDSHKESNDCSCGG
As to conditions: at 0.1 µM.

For assay [11], the target named is T2, Ephrin type-B receptor 2 (Homo sapiens). As to conditions: at 1 µM.
Assay [12] concerns the target T3, Ephrin type-B receptor 3 (Homo sapiens) (UniProt P54753).
T3 sequence (whole entry): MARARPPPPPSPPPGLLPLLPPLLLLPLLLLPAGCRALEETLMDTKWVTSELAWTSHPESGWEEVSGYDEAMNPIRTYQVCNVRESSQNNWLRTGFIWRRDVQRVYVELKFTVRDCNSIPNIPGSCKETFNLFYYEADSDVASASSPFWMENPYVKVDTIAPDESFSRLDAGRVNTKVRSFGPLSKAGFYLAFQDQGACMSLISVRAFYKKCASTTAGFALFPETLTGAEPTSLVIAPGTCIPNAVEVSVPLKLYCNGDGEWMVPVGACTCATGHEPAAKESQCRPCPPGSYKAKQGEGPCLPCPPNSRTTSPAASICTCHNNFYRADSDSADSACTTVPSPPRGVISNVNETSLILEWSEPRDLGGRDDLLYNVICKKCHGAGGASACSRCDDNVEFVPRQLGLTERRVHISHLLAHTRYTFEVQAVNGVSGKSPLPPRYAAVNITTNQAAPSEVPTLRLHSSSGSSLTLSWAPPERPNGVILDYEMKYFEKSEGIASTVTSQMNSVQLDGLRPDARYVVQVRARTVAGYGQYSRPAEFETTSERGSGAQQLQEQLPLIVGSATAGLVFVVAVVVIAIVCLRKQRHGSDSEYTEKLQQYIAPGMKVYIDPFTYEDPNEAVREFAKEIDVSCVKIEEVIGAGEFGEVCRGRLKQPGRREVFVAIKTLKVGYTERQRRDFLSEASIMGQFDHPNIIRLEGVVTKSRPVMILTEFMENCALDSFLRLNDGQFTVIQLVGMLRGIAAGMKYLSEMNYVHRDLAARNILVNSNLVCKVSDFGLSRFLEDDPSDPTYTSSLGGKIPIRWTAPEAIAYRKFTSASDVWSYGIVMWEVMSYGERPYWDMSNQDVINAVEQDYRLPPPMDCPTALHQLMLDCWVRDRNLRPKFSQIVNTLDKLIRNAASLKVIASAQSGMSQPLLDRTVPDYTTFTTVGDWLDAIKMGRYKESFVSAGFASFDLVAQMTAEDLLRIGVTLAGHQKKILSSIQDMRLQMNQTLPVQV
As to conditions: at 0.1 µM.

Assay [13] has as its target T3, Ephrin type-B receptor 3 (Homo sapiens). As to conditions: at 1 µM.
Assay [14] addresses T4, Ephrin type-B receptor 4 (Homo sapiens) (UniProt P54760).
T4 sequence (whole entry): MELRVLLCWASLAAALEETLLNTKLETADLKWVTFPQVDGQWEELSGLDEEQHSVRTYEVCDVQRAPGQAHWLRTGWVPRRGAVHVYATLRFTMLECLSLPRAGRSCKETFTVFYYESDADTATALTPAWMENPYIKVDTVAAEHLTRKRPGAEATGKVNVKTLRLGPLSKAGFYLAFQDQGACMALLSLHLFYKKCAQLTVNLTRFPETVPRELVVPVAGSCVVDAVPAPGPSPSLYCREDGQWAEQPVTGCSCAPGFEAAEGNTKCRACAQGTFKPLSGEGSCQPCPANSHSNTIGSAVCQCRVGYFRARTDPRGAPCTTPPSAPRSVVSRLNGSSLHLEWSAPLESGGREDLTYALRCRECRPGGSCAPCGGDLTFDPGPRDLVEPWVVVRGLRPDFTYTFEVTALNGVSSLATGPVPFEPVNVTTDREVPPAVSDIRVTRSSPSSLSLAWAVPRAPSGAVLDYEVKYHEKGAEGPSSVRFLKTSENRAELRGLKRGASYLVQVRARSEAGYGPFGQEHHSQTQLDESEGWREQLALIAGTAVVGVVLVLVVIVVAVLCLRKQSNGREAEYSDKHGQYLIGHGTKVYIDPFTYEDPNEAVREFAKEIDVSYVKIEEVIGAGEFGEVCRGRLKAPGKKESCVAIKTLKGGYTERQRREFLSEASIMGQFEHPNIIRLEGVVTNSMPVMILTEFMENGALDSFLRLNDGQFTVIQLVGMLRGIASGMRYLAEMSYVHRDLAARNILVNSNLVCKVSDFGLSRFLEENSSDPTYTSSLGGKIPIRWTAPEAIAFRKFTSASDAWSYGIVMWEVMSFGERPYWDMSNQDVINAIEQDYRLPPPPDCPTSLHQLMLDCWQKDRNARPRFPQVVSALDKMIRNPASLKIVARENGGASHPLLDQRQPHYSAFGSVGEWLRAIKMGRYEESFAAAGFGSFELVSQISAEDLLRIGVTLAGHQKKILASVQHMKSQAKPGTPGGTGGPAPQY
As to conditions: at 0.1 µM.

Assay [15] has as its target T4, Ephrin type-B receptor 4 (Homo sapiens). As to conditions: at 1 µM.
The target of assay [16] is Receptor tyrosine-protein kinase erbB-2 (Homo sapiens) (UniProt P04626). The note with it: at 0.1 µM.
For assay [17] the target is unchanged. The note with it: at 1 µM.
Assay [18] concerns the target Receptor tyrosine-protein kinase erbB-4 (Homo sapiens) (UniProt Q15303). The note with it: at 0.1 µM.
Chain of UniProt Q15303 (Q15303 whole entry): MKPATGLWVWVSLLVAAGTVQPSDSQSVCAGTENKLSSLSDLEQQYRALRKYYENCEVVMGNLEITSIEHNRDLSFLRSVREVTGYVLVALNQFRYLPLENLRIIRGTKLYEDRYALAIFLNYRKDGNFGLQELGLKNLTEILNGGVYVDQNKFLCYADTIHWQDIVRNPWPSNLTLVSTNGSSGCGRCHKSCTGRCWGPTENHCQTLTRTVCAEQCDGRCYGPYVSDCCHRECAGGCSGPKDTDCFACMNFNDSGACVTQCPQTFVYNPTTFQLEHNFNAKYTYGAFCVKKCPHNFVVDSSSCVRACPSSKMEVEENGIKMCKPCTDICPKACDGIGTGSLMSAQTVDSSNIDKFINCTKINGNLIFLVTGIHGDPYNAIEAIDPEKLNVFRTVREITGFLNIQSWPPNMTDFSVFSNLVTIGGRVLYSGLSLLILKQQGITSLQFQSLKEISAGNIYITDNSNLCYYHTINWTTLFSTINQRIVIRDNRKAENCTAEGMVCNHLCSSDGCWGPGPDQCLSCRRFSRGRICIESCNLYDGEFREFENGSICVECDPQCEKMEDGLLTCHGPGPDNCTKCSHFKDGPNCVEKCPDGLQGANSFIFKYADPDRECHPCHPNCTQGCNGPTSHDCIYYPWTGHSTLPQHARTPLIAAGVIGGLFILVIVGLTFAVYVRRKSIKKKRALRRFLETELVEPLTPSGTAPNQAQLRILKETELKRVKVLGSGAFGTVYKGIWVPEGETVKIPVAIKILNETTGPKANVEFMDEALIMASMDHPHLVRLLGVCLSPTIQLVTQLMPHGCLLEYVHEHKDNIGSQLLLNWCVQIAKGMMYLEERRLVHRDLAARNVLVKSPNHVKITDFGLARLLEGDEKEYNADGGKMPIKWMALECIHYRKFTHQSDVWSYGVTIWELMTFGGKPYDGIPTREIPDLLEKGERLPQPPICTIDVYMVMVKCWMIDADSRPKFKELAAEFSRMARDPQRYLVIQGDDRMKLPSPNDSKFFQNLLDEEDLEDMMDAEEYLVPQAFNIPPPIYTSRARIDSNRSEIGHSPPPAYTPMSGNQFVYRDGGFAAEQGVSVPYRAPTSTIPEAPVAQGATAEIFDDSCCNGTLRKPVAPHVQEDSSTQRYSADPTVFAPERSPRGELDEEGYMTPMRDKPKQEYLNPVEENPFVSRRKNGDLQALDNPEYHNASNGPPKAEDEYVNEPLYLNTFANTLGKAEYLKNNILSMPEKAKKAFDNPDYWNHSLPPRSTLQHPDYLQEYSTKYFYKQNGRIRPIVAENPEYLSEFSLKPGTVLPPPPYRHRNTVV
The target is the same in assay [19]. The note with it: at 1 µM.
In assay [20] the target is Tyrosine-protein kinase Fer (Homo sapiens) (UniProt P16591). The note with it: at 0.1 µM.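 Further: reported figures are averaged percent inhibition of FER.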
Chain of UniProt P16591 (P16591 whole entry, looked up): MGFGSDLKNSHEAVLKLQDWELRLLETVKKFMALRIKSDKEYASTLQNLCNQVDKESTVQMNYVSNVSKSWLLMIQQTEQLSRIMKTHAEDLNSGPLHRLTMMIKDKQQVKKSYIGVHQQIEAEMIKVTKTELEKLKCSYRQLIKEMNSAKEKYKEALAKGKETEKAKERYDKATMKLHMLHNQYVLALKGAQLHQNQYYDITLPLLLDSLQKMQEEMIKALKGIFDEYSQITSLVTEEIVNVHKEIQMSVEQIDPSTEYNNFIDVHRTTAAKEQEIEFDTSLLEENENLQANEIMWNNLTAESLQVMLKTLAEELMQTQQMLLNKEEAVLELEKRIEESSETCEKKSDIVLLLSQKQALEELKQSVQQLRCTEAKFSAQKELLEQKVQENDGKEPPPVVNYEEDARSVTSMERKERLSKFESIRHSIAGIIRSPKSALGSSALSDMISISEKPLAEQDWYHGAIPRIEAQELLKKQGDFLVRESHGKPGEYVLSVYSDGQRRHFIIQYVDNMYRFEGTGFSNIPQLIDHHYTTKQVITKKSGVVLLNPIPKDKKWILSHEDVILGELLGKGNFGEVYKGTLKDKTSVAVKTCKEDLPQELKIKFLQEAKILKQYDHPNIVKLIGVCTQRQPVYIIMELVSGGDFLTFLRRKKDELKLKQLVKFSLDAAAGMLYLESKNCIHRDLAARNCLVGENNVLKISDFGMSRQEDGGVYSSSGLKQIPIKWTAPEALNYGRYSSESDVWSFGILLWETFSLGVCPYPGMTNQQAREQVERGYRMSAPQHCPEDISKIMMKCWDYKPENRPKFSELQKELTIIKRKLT

For part of these data: Most of the strong results are listed elsewhere, so they are rarer here than in the full data. Only a part is listed here, and it is no random draw.

Consider `Cc1cccc(Oc2nccc(-c3c(-c4ccc(F)cc4)ncn3C3CCNCC3)n2)c1C`, for which the inhibition (commonly the percentage by which the read-out fell short of the control) was 2.18% in [1]; 1.61% in [2]; 6.91% in [3]; 1.32% in [4]; 0.66% in [5]; 1.54% in assay [6]. The inhibition was determined as 3% in assay [7]; 5.4% in assay [8]; 8.41% in [9]; 5.48% in assay [10]; 7.01% in assay [11]; 3.14% in assay [12]. For the same compound, the inhibition in [13] is 5.07%; in [14], 0.3%; in assay [15], 1.15%; in assay [16] it was 1.89%; in [17], 5.54%; in assay [18], 6.52%. For the same compound, the results for the inhibition in assay [19] and in assay [20] were 10.7% and 2.75%, respectively.

Take `O=C1NC(=O)C(c2ccccc2Cl)=C1Nc1cc(Cl)c(O)c(Cl)c1`: the inhibition worked out at 4.23% in assay [1]; 3.01% in assay [2]; 3.64% in [3]; 3.32% in [4]; 1.83% in [5]; 1.8% in [6]. Also, the inhibition is 3.6% in assay [7]; 8.3% in assay [8]; 12% in [9]; 6.07% in [10]; 8.53% in assay [11]; 3.21% in [12]. Also, the inhibition in assay [13] was determined as 2.6%; in [14], 1.31%; in assay [15], 0.98%; in [16] it was 1.04%; in assay [17] it was 5.37%; in assay [18], 7.33%. Besides, the inhibition in [19] was 9.17%; in assay [20], 2.57%.

As to `Fc1ccc(-c2ncn(C3CCNCC3)c2-c2ccnc(Oc3cccc(F)c3)n2)cc1`, the inhibition in assay [1] stood at 2.06%; in [2], 4%; in [3] it was 5.17%; in assay [4], 0.84%; in assay [5] it was 0.25%; in [6], 4.48%. Besides, the inhibition amounted to 6.01% in [7]; 7.86% in assay [8]; 12% in assay [9]; 8.19% in assay [10]; 15.4% in assay [11]; 4.21% in [12]. The inhibition turned out to be 4.97% in assay [13]; 1.93% in assay [14]; 3.09% in [15]; 3.49% in [16]; 4.09% in [17]; 5% in assay [18]. The figures for the inhibition in assay [19] and in [20] were 11.2% and 6.81%, respectively.
